Results: US20240190987A1, “Engineered EpCam Binding Antibodies” (TigaTX, priority 2021, published 2024)

Assays:
AEPO cells [1] = assay: Surface staining of AEPO tumor cells by flow cytometry; assay type: cell-based, human; conditions: […]-1 μM
Protocol: Surface binding was measured on an isogenic panel of EpCAM-knockout and EpCAM-overexpressing cell lines derived from A-431, a human epidermoid carcinoma cell line (FIG. 34). AEKO and AEPO are isogenic control cell lines in which there is zero EpCAM expression (AEKO) or high EpCAM expression (AEKO-E4). AEKO is a commercially available subclone of A-431 in which human EpCAM expression is “knocked out” (disrupted) by a frameshift mutation (catalog number ab261902; Abcam, Cambridge, UK). AEPO was developed using the AEKO cell line as a starting point and restoring expression of human EpCAM by transducing with a lentiviral vector containing human EpCAM downstream of an EF1α promoter. Cells were stained with Ab1070, a conventional TCE containing the M37-H6L2 variant of the M37 clone, at a range of concentrations from 0.015 nM-1 μM.
A single-cell suspension of adherent tumor cell lines was obtained by incubating 5 minutes with TrypLE Express (Gibco, Waltham, MA) and quenching with growth media (DMEM+10% FBS+1% penicillin/streptomycin), centrifuging at 400 rcf×5 minutes, aspirating the supernatant, and resuspending the cell pellet in CSM (AutoMACS Running Buffer, Miltenyi Biotec, Bergisch Gladbach, Germany). […]

AEPO cells [2] = assay: TDCC co-culture assay, AEPO; assay type: cell-based, human; conditions: up to 1 nM, 69 hours
Protocol: Surface binding was measured on an isogenic panel of EpCAM-knockout and EpCAM-overexpressing cell lines derived from A-431, a human epidermoid carcinoma cell line (FIG. 34). AEKO and AEPO are isogenic control cell lines in which there is zero EpCAM expression (AEKO) or high EpCAM expression (AEKO-E4). AEKO is a commercially available subclone of A-431 in which human EpCAM expression is “knocked out” (disrupted) by a frameshift mutation (catalog number ab261902; Abcam, Cambridge, UK). AEPO was developed using the AEKO cell line as a starting point and restoring expression of human EpCAM by transducing with a lentiviral vector containing human EpCAM downstream of an EF1α promoter. […]
Co-culture assays were used to assess T-cell activation (CD69 upregulation), cytokine production or T-cell-dependent cellular cytotoxicity (TDCC) of target cells. […] While T cells were being processed, target cells were incubated with CellTiter-Glo 2.0 (Promega, Madison, WI) for 15 min at room temperature with shaking then read for luciferase light emission on a GloMax Explorer plate reader using default settings. Specific Cytotoxicity (%) was calculated from the relative luminescence unit values (RLU) using the formula: [1−(experimental RLU/vehicle-treated RLU))×100]. The frequency of CD69+ T-cells (%) was calculated as the percentage of CD69-positive events within the CF405M-negative population. […]

[3] = test system: human T-cells with HCT-116 target cells; assay: T-cell activation (CD69 upregulation) in co-culture with HCT-116; assay type: cell-based; conditions: up to 1 nM, 69 hours
Source text: Leukapheresis packs were obtained from deidentified healthy adult donors (StemCell Technologies, Vancouver, BC). Peripheral blood mononuclear cells (PBMCs) were first isolated using the EasySep Direct Human PBMC Kit (StemCell Technologies). Human T cells were magnetically isolated from the PBMCs using the EasySep Human T cell Isolation Kit (StemCell Technologies). T cells were cryopreserved in DMEM with 10% FBS and 10% DMSO and thawed the day of experiments.
Co-culture assays were used to assess T-cell activation (CD69 upregulation), cytokine production or T-cell-dependent cellular cytotoxicity (TDCC) of target cells. […] While T cells were being processed, target cells were incubated with CellTiter-Glo 2.0 (Promega, Madison, WI) for 15 min at room temperature with shaking then read for luciferase light emission on a GloMax Explorer plate reader using default settings. Specific Cytotoxicity (%) was calculated from the relative luminescence unit values (RLU) using the formula: [1−(experimental RLU/vehicle-treated RLU))×100]. The frequency of CD69+ T-cells (%) was calculated as the percentage of CD69-positive events within the CF405M-negative population. Dose-response curves and EC50 values were calculated in GraphPad Prism 9 software (GraphPad Software San Diego, CA).

B1: Ab1070: conventional TCE containing the M37-H6L2 variant of the M37 clone (antibody)
heavy 1: EVQLVESGGGLVQPGGSLRLSCAASGFTFNTYAMNWVRQAPGKGLEWVARIRSKYNNYATYYADSVKGRFTISRDDSKSILYLQMNSLRAEDTAVYYCVRHGNFGNSYVSWFAYWGQGTLVTVSSGGGGSGGGGSGGGGSDIQVTQSPSSLSASVGDRVTITCRSSTGAVTTSNYANWVQQKPGKAFKGLIGGTNKLAPGVPSRFSGSLSGDDATLTISSLQPEDFATYYCALWYSNLWVFGQGTKLEIKGGGGS[human IgG1 Fc with changes left out]
heavy 2: EVQLVESGGGLVQPGGSLRLSCAASGFTFSNYWMNWVRQAPGKGLEWVAQIRVKSENFATHYADSVKGRFTISRDDSKSTVYLQMNSLRAEDTAVYYCTLYDGFSWGQGTLVTVSSASTKGPSVFPLAPSSKSTSGGTAALGCLVKDYFPEPVTVSWNSGALTSGVHTFPAVLQSSGLYSLSSVVTVPSSSLGTQTYICNVNHKPSNTKVDKKV[human IgG1 Fc with changes left out]
light: DIQMTQSPSSLSASVGDRVTITCSASSSVSSGNFHWYQQKPGKAPKLLIYRTSNLASGVPSRFSGSGSGTDYTLTISSLQPEDFATYYCQQWSGYPYTFGQGTKVEIKRTVAAPSVFIFPPSDEQLKSGTASVVCLLNNFYPREAKVQWKVDNALQSGNSQESVTEQDSKDSTYSLSSTLTLSKADYEKHKVYACEVTHQGLSSPVTKSFNRGEC
modifications: REGION 1..482: note = Ab1070 Knob HC; REGION 1..446: note = Ab1070 Hole HC; REGION 1..215: note = Ab1070 Hole LC
notes: conventional TCE containing the M37-H6L2 variant of the M37 clone
- surface binding to EpCAM-overexpressing AEPO (AEKO-E4) cells (AEPO cells [1]): Surface binding was observed
- TDCC of AEPO target cells (AEPO cells [2]): killed by TDCC
- T-cell activation (CD69 upregulation) with HCT-116 [3]: induced activation of T-cells
